The record followed here is paper PMC4336329 (PLoS ONE, 2015).

Each structure is given as a SMILES string. Hit rate of the full screen: of about 310,000 compounds, about 2,200 (0.71%) showed an effect of 50% or more. Effects have a minus sign here. Some of the results follow.

For the assay, the target named is human ether-à-go-go-related gene (hERG) potassium channel (human, UniProt Q12809). Description: primary screen, population patch clamp on CHO cells stably expressing hERG.
Chain of human ether-à-go-go-related gene (hERG) potassium channel (Q12809 whole entry, looked up): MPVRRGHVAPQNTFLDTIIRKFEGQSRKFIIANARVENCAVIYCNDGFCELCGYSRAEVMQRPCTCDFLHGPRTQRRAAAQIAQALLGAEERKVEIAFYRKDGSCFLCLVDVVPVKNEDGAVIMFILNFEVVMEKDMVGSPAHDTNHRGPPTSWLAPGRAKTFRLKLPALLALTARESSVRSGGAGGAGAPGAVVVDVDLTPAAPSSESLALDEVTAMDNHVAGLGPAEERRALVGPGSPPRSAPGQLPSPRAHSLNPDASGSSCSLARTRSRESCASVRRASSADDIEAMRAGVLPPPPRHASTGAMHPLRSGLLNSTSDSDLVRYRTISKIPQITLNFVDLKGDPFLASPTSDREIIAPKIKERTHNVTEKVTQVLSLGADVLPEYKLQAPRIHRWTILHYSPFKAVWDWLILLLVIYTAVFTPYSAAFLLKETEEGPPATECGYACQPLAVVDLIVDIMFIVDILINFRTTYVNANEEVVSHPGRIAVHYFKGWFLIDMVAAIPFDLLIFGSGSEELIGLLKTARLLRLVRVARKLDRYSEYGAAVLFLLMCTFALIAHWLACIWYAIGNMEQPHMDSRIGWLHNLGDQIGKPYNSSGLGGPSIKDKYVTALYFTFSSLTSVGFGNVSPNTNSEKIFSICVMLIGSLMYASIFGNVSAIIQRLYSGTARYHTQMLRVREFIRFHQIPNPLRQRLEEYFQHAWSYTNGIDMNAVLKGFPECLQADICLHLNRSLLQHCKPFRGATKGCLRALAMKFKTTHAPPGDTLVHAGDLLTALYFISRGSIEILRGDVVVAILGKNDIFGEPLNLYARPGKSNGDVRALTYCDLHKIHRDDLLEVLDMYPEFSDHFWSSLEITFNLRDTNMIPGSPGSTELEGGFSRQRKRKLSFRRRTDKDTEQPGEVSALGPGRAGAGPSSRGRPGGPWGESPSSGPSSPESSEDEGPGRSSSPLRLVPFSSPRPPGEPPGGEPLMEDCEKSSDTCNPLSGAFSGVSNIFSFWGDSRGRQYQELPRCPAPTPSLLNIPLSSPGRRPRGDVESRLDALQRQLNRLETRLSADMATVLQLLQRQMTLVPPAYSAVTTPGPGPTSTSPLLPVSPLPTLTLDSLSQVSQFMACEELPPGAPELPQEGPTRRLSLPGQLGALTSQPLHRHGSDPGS
As to `CCCN(Cc1ccccc1)C(=S)Nc1ccc(C(C)=O)cc1`, the “hERG current change (%, negative = inhibition) at 1uM” value is given as -1.99%.
With `COc1ccc(NC(=O)C2CC(=O)N=C(N)S2)cc1` (centres unmarked) the figure was 11.4%; with `O=C(c1cc(-c2ccccc2)nc2ccccc12)N1CCN(c2ccccc2O)CC1`, 4.64%; with `Cc1ccc(C(=O)N/N=C/c2cc(C)n(-c3ccc(Br)cc3)c2C)cc1[N+](=O)[O-]`, 13.7%.
With `O=C(NCCc1c[nH]c2ccccc12)C1CCN(S(=O)(=O)c2ccccc2)CC1` the figure was 7.42%.
The figure for `Cc1ccc(S(=O)(=O)N2CCN(C(=O)Cc3c(F)cccc3Cl)CC2)cc1` is 17.5%; for `CCCCC(=O)N1CCN(c2nc3ccc(OCC)cc3s2)CC1` it is -3.13%.
Take `COC(=O)c1cn(NC(=O)c2ccccc2[N+](=O)[O-])c(=O)c2ccccc12`: the “hERG current change (%, negative = inhibition) at 1uM” value is 6.56%.
Take `Oc1c(C(c2cccc(F)c2)N2CCN(Cc3ccccc3)CC2)sc2ncnn12` (centres unmarked): the “hERG current change (%, negative = inhibition) at 1uM” value was 1.38%.
The figure for `COc1ccccc1CNS(=O)(=O)c1ccc2c(c1)NC(=O)CO2` is 13.5%; for `NNC(=O)CN1C(c2ccccc2Br)=Nc2ccc(Br)cc2C1c1ccccc1` (centres unmarked) it is 8.59%.
On to `O=C(Cn1cnc2ccccc2c1=O)NC1CCCc2ccccc21` (centres unmarked), for which the “hERG current change (%, negative = inhibition) at 1uM” value turned out to be 13%.
With `Cc1ccc(CSCCNC(=O)c2ccc(N(C)S(=O)(=O)c3ccccc3)cc2)cc1` the figure was -5.15%.
Turning to `CC(=O)Cn1nnc2sc3c(c2c1=O)CCC(C(C)(C)C)C3` (centres unmarked), the “hERG current change (%, negative = inhibition) at 1uM” value came to 6.65%.
Consider `O=C(CCS(=O)(=O)Cc1ccccc1)Nc1nc2c(s1)CCCC2`, for which the “hERG current change (%, negative = inhibition) at 1uM” value came out at 3.27%.
Regarding `CSCC[C@H](NC(=O)OC(C)(C)C)C(=O)NCC1CCC(C(=O)O)CC1` (some centres unmarked), the “hERG current change (%, negative = inhibition) at 1uM” value is recorded as 3.02%.
In the case of `CC(C)(C)C(=O)N1CCC(O)(CS(=O)(=O)Cc2ccccc2Cl)CC1`, the “hERG current change (%, negative = inhibition) at 1uM” value is recorded as -2.08%.
Take `Cc1cccc(NC(=S)NCc2cccs2)c1C`: the “hERG current change (%, negative = inhibition) at 1uM” value is given as -4.04%.
With `CCCOc1ccc(C2(C(=O)O)CCCC2)cc1`, the “hERG current change (%, negative = inhibition) at 1uM” value was 8.31%.
Turning to `CCN(C(=O)C1CCCCC1)c1nnc(-c2cccnc2)s1.Cl`, the “hERG current change (%, negative = inhibition) at 1uM” value was 4.41%.
For `COc1ccccc1O`, the “hERG current change (%, negative = inhibition) at 1uM” value is given as 14.5%.
For the compound `O=C(NCCc1ccccn1)c1cncc(Br)c1`, the “hERG current change (%, negative = inhibition) at 1uM” value worked out at 13%.
The figure for `COC(CNc1ncnc2sc(-c3ccccc3)cc12)OC` is 1.81%; for `Cc1ccc(C)c(N=Nc2nc3ccccc3n2C)c1` it is 6.38%; for `CCOc1ccccc1C(=O)OCC(=O)NCC1CCCCC1` it is 8.09%.
As to `Cc1sc2nc(SCCN(C)C)n(-c3ccccc3)c(=O)c2c1-c1ccc(F)cc1`, the “hERG current change (%, negative = inhibition) at 1uM” value worked out at 17.9%.
Consider `CCOc1ccccc1CNS(=O)(=O)c1ccc2c(c1)oc(=O)n2C`, for which the “hERG current change (%, negative = inhibition) at 1uM” value turned out to be 9.66%.
As to `COc1cc(C=Nc2cccc([N+](=O)[O-])c2C)ccc1OC(C)=O`, the “hERG current change (%, negative = inhibition) at 1uM” value is on record as 16.2%.
As to `CCN1CCN(CCCNC(=O)c2cc3c(=O)[nH]c4ccccc4c3s2)CC1`, the “hERG current change (%, negative = inhibition) at 1uM” value is 1.35%.
As for `C[N+]1(C)CCC(OC(=O)C(c2ccccc2)c2ccccc2)CC1.[I-]`, the “hERG current change (%, negative = inhibition) at 1uM” value was determined as 8.61%.
Turning to `CCS(=O)(=O)NCc1ccc2[nH]c3c(c2c1)CCCC3`, the “hERG current change (%, negative = inhibition) at 1uM” value came to 12%.
As to `COc1ccc(N(CC(=O)Nc2ccc(OC)c(OC)c2)S(=O)(=O)c2ccccc2)cc1Cl`, the “hERG current change (%, negative = inhibition) at 1uM” value is recorded as 10.4%.
As for `COc1ccc(NC(=O)C2CCCN(S(C)(=O)=O)C2)cc1Cl` (centres unmarked), the “hERG current change (%, negative = inhibition) at 1uM” value worked out at 14.8%.
With `O=C1CSC(c2ccc(F)cc2)N1c1c(F)cccc1F` (centres unmarked), the “hERG current change (%, negative = inhibition) at 1uM” value was found to be 10.7%.
For the compound `COC(=O)C(NC(=O)c1ccccc1C)(Nc1ncc(S(=O)(=O)c2ccc([N+](=O)[O-])cc2)s1)C(F)(F)F` (centres unmarked), the “hERG current change (%, negative = inhibition) at 1uM” value was 2.23%.
`c1cc(C2N3CCCN2CC3)ccn1` (centres unmarked): the “hERG current change (%, negative = inhibition) at 1uM” value is reported as 15.9%.
Regarding `O=C(N/N=C/c1ccsc1)c1c[nH]c2ccccc12`, the “hERG current change (%, negative = inhibition) at 1uM” value is reported as -0.145%.
The figure for `CCOCc1c(C(=O)Nc2ccc3nc(N4CCOCC4)sc3c2)oc2ccccc12` is -12.2%.
On to `c1ccc(Nc2nc(CSc3ncn[nH]3)cs2)cc1`, for which the “hERG current change (%, negative = inhibition) at 1uM” value amounted to 14.4%.
With `Cc1ccccc1OCC(=O)OCC(=O)Nc1ccc2c(c1)OCCO2`, the “hERG current change (%, negative = inhibition) at 1uM” value turned out to be 7.22%.
With `CCOC(=O)c1ccc(NC(=O)c2cc(C)nn2-c2ccccc2)cc1`, the “hERG current change (%, negative = inhibition) at 1uM” value was determined as 9.05%.
In the case of `CCCc1nc(NC(C)=O)c(C#N)c(-c2ccco2)c1CC`, the “hERG current change (%, negative = inhibition) at 1uM” value is on record as 0.0807%.
`O=C(CSc1nc(C2CC2)nc2ccccc12)N1c2ccccc2Sc2ccccc21`: the “hERG current change (%, negative = inhibition) at 1uM” value turned out to be 8.18%.
With `CC(C)(C)c1ccc(S(=O)(=O)NCc2ccc(C(=O)NCc3ccccn3)cc2)cc1`, the “hERG current change (%, negative = inhibition) at 1uM” value is 0.641%.
